Test results as given in patent US11155596B2, “Polypeptide” (AFFIBODY AB, priority 2016, dated 2021).

Biological target: PD-L1 on PD-L1 expressing cells (IFNg-stimulated THP-1 cells; MDA-MB-231 cells) (Homo sapiens (Human)), Q9NZQ7
Experiment: FACS, MDA-MB-231 cells, 0.625 µg/ml; negative control (buffer) 69
Conditions: remark: other sources report otherwise

Sequence of PD-L1 on PD-L1 expressing cells (IFNg-stimulated THP-1 cells; MDA-MB-231 cells) (Homo sapiens (Human)), Q9NZQ7 (Q9NZQ7 19-290 limits assumed): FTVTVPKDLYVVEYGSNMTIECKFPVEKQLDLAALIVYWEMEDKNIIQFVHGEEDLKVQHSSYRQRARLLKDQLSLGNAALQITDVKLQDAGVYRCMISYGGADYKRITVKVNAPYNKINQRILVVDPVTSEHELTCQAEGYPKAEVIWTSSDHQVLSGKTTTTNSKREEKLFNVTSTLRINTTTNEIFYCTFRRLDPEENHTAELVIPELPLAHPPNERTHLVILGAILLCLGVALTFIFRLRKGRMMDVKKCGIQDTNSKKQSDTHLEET

B1: Lam (antibody)
heavy: QVQLVQSGVEVKKPGASVKVSCKASGYTFTNYYMYWVRQAPGQGLEWMGGINPSNGGTNFNEKFKNRVTLTTDSSTTTAYMELKSLQFDDTAVYYCARRDYRFDMGFDYWGQGTTVTVSSASTKGPSVFPLAPCSRSTSESTAALGCLVKDYFPEPVTVSWNSGALTSGVHTFPAVLQSSGLYSLSSVVTVPSSSLGTKTYTCNVDHKPSNTKVDKRV[here human IgG4 Fc with S228P (EU numbers) without letters]
light: EIVLTQSPATLSLSPGERATLSCRASKGVSTSGYSYLHWYQQKPGQAPRLLIYLASYLESGVPARFSGSGSGTDFTLTISSLEPEDFAVYYCQHSRDLPLTFGGGTKVEIKRTVAAPSVFIFPPSDEQLKSGTASVVCLLNNFYPREAKVQWKVDNALQSGNSQESVTEQDSKDSTYSLSSTLTLSKADYEKHKVYACEVTHQGLSSPVTKSFNRGEC
In the case of B1, the MFI is reported as 62.
